Out of some 110,000 compounds screened, about 230 (0.21%) showed an effect of 50% or more. Some of the results follow.
These compounds were tested against DPAP1 (Plasmodium falciparum, UniProt Q8IIJ9) (assay: primary screen, percent inhibition; read by cleavage of a fluorogenic dipeptide substrate; higher = more effect of the substance).
Set-up: species or system P. falciparum D10 trophozoite lysates; single well
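Further: 30 min substrate incubation versus DMSO and 10 µM JCP410 controls.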

Sequence of DPAP1 (Q8IIJ9 whole entry, looked up): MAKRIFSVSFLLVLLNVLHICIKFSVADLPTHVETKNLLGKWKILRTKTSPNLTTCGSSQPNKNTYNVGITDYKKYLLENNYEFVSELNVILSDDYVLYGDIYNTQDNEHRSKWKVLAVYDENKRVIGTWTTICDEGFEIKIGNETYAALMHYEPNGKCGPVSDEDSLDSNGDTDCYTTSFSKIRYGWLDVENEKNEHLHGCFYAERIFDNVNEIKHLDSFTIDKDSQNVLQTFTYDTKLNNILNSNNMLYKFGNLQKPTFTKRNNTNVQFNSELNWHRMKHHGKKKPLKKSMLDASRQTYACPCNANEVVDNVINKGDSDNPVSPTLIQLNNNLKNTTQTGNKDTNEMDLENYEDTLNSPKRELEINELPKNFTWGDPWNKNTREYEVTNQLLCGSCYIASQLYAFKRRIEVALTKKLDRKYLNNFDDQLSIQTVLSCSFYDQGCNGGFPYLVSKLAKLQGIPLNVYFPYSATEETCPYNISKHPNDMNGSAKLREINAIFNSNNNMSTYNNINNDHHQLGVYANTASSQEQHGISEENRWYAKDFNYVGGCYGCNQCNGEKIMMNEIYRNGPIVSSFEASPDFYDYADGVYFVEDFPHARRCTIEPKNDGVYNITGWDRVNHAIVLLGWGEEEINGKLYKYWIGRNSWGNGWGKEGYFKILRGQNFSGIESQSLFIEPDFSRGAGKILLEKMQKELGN

| Compound | % Inhibition @ 10 uM [%] |
| --- | --- |
| COc1cccc(S(=O)(=O)Nc2ccc(C(=O)N3CCc4cc(OC)c(OC)cc4C3)cc2)c1 | -0.984 |
| Cn1cc(CC(=O)NCC2(c3ccccc3)CCCC2)c2ccccc21 | 0.128 |
| O=c1c(C(c2ccccc2)c2c(O)sc3ccccc3c2=O)c(O)sc2ccccc12 | 18 |
| O=C(O)c1ccccc1Nc1cccc(Cl)c1 | 2.49 |
| O=C(C1=C(O)C(=O)N(CCc2ccccc2)C1c1ccc2c(c1)OCO2)c1ccccc1 (stereo not shown) | 0.528 |
| COc1ccc(C2C=C(c3ccc(Cl)cc3)Nc3nc(NC(=O)c4cccs4)nn32)cc1 (stereo not shown) | 1.62 |
| CCOC(=O)C1=CN(C)C=C(C(=O)OCC)C1c1ccccc1OCC | 3.45 |
| Cc1ccc(-c2nc(CSCC(=O)N3CCC4(CC3)OCCO4)c(C)o2)cc1 | 2.37 |
| CCOC(=O)N1CCC(NC(=O)CS(=O)Cc2nc(-c3ccc(C)cc3)oc2C)CC1 (stereo not shown) | -2.85 |
| O=C(CCCOc1ccc(Cl)cc1Cl)N1CCOCC1 | 4.47 |
| O=C(NCc1ccccc1)c1ccc(-c2ccccc2)s1 | -2.17 |
| CCOC(=O)CN(C)Cc1c[nH]c2ccccc12 | -5.42 |
| CCc1c(C)sc(NC(=O)Cn2nc(C)c(Br)c2C)c1C(N)=O | 0.907 |
| CO/C(O)=C1\C(C)=NC2=C(C(=O)c3ccccc32)C1c1ccc(Br)cc1 (stereo not shown) | -5.01 |
| Cc1cc(C)c2c3c(sc2n1)C(c1cccc(F)c1)C(C#N)=C(N)O3 (stereo not shown) | -2.07 |
| Cc1ccc(N2CC(C(=O)Nc3c(C)cccc3C)CC2=O)cc1Cl (stereo not shown) | 1.02 |
| O=c1c2ccccc2nc(/C=C/c2cccc(Br)c2)n1-c1ccccc1 | 3 |
| Cc1ccc2c(c1)-c1c(cnn1CC(=O)N(C)Cc1ccco1)CO2 | 0.695 |
| COc1cccc(=O)c2c(C)n(CC(=O)c3ccccc3)c(C)c12 | -0.958 |
| CCOC(=O)c1cnn(-c2ccccc2)c1NC(=O)c1ccccc1 | 9.09 |
| Cc1ccc(C23CC4CC(CC(O)(C4)C2)C3)cc1[N+](=O)[O-] | -2.55 |
| CC(C)c1ccc(/C=C2/C(=N)N3C(=NC2=O)SN=C3S(C)(=O)=O)cc1 | 1.85 |
| c1ccc(CCN2CCC(N3CCSCC3)CC2)cc1 | 1.57 |
| CCc1ccc(/C=C(\C#N)c2nc3ccccc3[nH]2)cc1 | -3.78 |
| CCOc1ccc(-c2cc(C)n3nc(C(=O)Nc4ccc(C(C)=O)cc4)cc3n2)cc1 | 2.01 |

| Compound | % Inhibition @ 10 uM [%] |
| --- | --- |
| Cc1nnc(NC(=O)CSc2nnc(CNC(=O)COc3ccccc3)n2-c2ccccc2)s1 | 5.32 |
| COc1ccc(-c2c(C(F)(F)F)oc3c(CN4CCCC4)c(O)ccc3c2=O)cc1OC | -1.98 |
| CCCN1CC(C)C(O)(c2ccccc2)CC1C (stereo not shown) | 5.04 |
| Clc1ccc(N2CCN(Cc3ccccc3Br)CC2)cc1 | 4.73 |
| CC(C)CCNC(=O)c1cc(-c2ccccn2)nc2ccc(S(=O)(=O)N3CCC(C)CC3)cc12 | -2.72 |
| Cc1ccc(CN(C(=O)COc2ccc(Cl)cc2)C2CCS(=O)(=O)C2)o1 (stereo not shown) | -1.11 |
| COC(=O)c1sc2nc(-c3ccccc3)ccc2c1N | -4.94 |
| O=[N+]([O-])c1ccc(Cl)cc1Sc1nc2ccccc2[nH]1 | -0.273 |
| Nc1ccc(C2CCCc3nonc32)c2nonc12 (stereo not shown) | -5.68 |
| COc1ccc(OCCSc2nc(N)cc(O)n2)cc1 | 0.00477 |
| COc1ccccc1N1CCN(C(=O)CN(c2ccccc2Cl)S(C)(=O)=O)CC1 | 4.83 |
| NS(=O)(=O)c1ccc(CCNC(=O)C2CCN(S(=O)(=O)c3c[nH]cn3)CC2)cc1 | 2.9 |
| CN(C)CCN1C(=O)C(O)=C(C(=O)c2ccccc2)C1c1ccc(Br)cc1 (stereo not shown) | -14.5 |
| CC(NC(=O)CCCCn1c(=O)[nH]c2ccsc2c1=O)c1ccccc1 (stereo not shown) | -3.27 |
| O=C1CC(N2CCCC(CO)C2)C(=O)N1c1ccc(Br)cc1 (stereo not shown) | 0.993 |
| C=CCOc1ccc2c(C(F)(F)F)cc(=O)oc2c1C | -0.45 |
| O=C(NCc1ccco1)c1ccc(CS(=O)c2ccc(Br)cc2)o1 (stereo not shown) | -3.32 |
| CC1CCN(C(=O)NCc2noc3ccccc23)CC1 | 1.13 |
| COc1ccc(OCC(O)Cn2c(NC3CCCCC3)nc3c2c(=O)n(C)c(=O)n3C)cc1 (stereo not shown) | -7.23 |
| COc1ccc2[nH]c(C)c(CCNCc3cccnc3)c2c1 | -4.35 |
| Cc1ccc(OC(C)C(=O)Nc2cccnc2)cc1 (stereo not shown) | 4.11 |
| O=C(COc1ccc(S(=O)(=O)N2CCCC2)cc1)N1CCN(c2cccc(Cl)c2)CC1 | -3.41 |
| O=C1c2ccc(F)cc2C(=O)N1Cc1cccnc1 | 2.7 |
| O=C(CCc1ccc(S(=O)(=O)NCc2ccccc2)cc1)Nc1ccccc1 | -3.45 |

From PMC6919601, “Identification of Plasmodium dipeptidyl aminopeptidase allosteric inhibitors by high throughput screening” (PLoS ONE, 2019)
